Measured values reported in the BET-seq Pho4 binding data (Le et al. 2018).
The list shows a part of the results. The energies were worked out here from pooled read counts, against the library average; single values are noisy.

The sequences below were run against T1, Pho4 (S. cerevisiae) (UniProt P07270) (assay: relative binding free energy (BET-seq); higher = weaker binding). Details: reference: library average.
T1 sequence: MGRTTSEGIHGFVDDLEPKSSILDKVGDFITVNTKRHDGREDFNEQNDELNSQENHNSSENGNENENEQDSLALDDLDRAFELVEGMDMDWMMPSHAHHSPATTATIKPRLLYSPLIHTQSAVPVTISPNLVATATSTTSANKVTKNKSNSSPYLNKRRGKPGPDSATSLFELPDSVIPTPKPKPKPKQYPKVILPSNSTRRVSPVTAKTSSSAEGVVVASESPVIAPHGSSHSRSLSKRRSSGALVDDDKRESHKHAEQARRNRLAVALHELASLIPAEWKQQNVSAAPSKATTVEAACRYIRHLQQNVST

Sequence | relative binding free energy
TGAGGCACGTGTTTAT | -0.1 kcal/mol
AGAGTCACGTGTGTTA | 0.13 kcal/mol
ACAGGCACGTGCGGTT | -0.15 kcal/mol
GGGGCCACGTGGGCGT | -0.36 kcal/mol
GCTATCACGTGGGGAT | 0.07 kcal/mol
TCGTGCACGTGGTGCG | -0.12 kcal/mol
AGAAGCACGTGGTGAG | -0.14 kcal/mol
GCGGCCACGTGAAGGT | 0.25 kcal/mol
TGGGCCACGTGCTGTG | -0.07 kcal/mol
CTTGGCACGTGTGTTC | -0.04 kcal/mol
GAGTGCACGTGGATAT | 0.02 kcal/mol
GTGTGCACGTGGTTAG | 0.03 kcal/mol
TGTCGCACGTGGTCTG | -0.14 kcal/mol
ATGGACACGTGGAGGA | 0.04 kcal/mol
ACTGTCACGTGTTGTT | 0.1 kcal/mol
GTTGGCACGTGATCTA | 0.03 kcal/mol
TGGGTCACGTGCGAAT | 0.13 kcal/mol
ATATACACGTGAGGGG | 0.11 kcal/mol
ATAGTCACGTGTATCG | 0.12 kcal/mol
CGAGACACGTGGGTTG | -0.23 kcal/mol
AGTGACACGTGAAATG | 0.13 kcal/mol

Sequence | relative binding free energy
CAGTTCACGTGTATTT | 0.29 kcal/mol
GGATTCACGTGGCGAG | 0.22 kcal/mol
CGGGACACGTGCGGTG | -0.13 kcal/mol
AAGGTCACGTGATGTA | 0.25 kcal/mol
TTGTTCACGTGTAGGA | 0.26 kcal/mol
ATGTTCACGTGAGGAG | 0.27 kcal/mol
ATTTGCACGTGTAGGA | 0.03 kcal/mol
TGTACCACGTGGAGTG | -0.07 kcal/mol
GGTGCCACGTGGAGTT | 0.01 kcal/mol
AGTTTCACGTGTGATC | 0.31 kcal/mol
GATTGCACGTGAATTG | 0.34 kcal/mol
GTTGGCACGTGTATCG | 0.13 kcal/mol
GCATGCACGTGGCTTG | 0.01 kcal/mol
TTGCGCACGTGAATTA | 0.17 kcal/mol
GATAGCACGTGTCGGG | 0.05 kcal/mol
AGGTTCACGTGATGAT | 0.25 kcal/mol
TGATTCACGTGCAGGG | 0.14 kcal/mol
ATCTTCACGTGTGTCT | 0.24 kcal/mol
TAAGACACGTGAGTGT | 0.17 kcal/mol
GCGGTCACGTGTGCTT | 0.18 kcal/mol
GGCGGCACGTGTGCGA | -0.02 kcal/mol

Sequence | relative binding free energy
TAGTGCACGTGAATGT | 0.22 kcal/mol
GGATGCACGTGGTGTT | 0 kcal/mol
TTCAACACGTGTGGAG | 0.11 kcal/mol
GTATCCACGTGGGGTA | 0.01 kcal/mol
GGGCTCACGTGCGTTT | 0.23 kcal/mol
TGTTCCACGTGGAGTA | 0.04 kcal/mol
GTTACCACGTGGGTTA | -0.16 kcal/mol
GTTGTCACGTGGAACG | 0.13 kcal/mol
GGATGCACGTGTGCGA | -0.13 kcal/mol
GTGCGCACGTGTAGTT | 0.01 kcal/mol
TTGTCCACGTGGGATG | -0.09 kcal/mol
AAGATCACGTGGTGTT | 0.04 kcal/mol
GATTCCACGTGTTGTT | 0.08 kcal/mol
GTGCACACGTGTTGAG | 0.05 kcal/mol
GTGGGCACGTGTCGGA | 0.05 kcal/mol
TGTGTCACGTGTGATT | 0.24 kcal/mol
ATAGCCACGTGGTTTA | -0.05 kcal/mol
ATTTGCACGTGTTGAA | 0.05 kcal/mol
GTCGGCACGTGGGTCT | -0.27 kcal/mol
GTAGTCACGTGCTTGT | -0.02 kcal/mol
TGTAGCACGTGAATGT | 0.22 kcal/mol
